The subject of one test is HSkMC. The experiment in a line: cytotoxicity call (relative viability < 0.9). The note with it: 10 µM.
The subject of a further test is HepG2. The test can be described thus: cytotoxicity call (relative viability < 0.9). The note with it: 10 µM.
The subject of another test is S. aureus RN4220. The test can be described thus: growth inhibition call (relative growth <= 0.2). The note with it: 50 µM.

The list shows a part of the results.

As for `Cc1noc(C)c1S(=O)(=O)N(C)C[C@H]1Oc2c(NS(=O)(=O)c3cn(C)cn3)cccc2C(=O)N([C@@H](C)CO)C[C@@H]1C`, the cytotoxicity call in the test on HSkMC and in the test on HepG2 was “inactive” in each case. Moreover, the growth inhibition call in the test with S. aureus RN4220 was “inactive”.
As for `C[C@H]1CN([C@@H](C)CO)C(=O)Cc2cc(NS(=O)(=O)c3cn(C)cn3)ccc2O[C@H]1CN(C)S(=O)(=O)c1cn(C)cn1`, the cytotoxicity call in the test with HSkMC and in the test with HepG2 was “inactive” in each case. Also, in the test on S. aureus RN4220, the growth inhibition call was “inactive”.
Regarding `CC(C)(C)S(=O)N1Cc2cc(C(=O)NCc3ccc(Oc4ccccc4)cc3)nc(-c3cccc(C#CCC4CCCC4)c3)c2[C@@H]1CCO` (some centres not stated), the cytotoxicity call in the test with HSkMC was “active”. Further, the cytotoxicity call in the test with HepG2 was “inactive”. Besides, in the test with S. aureus RN4220, the growth inhibition call was “inactive”.
With `COc1ccc(S(=O)(=O)N(C)C[C@@H]2OCCCC[C@H](C)Oc3ccc(NS(=O)(=O)c4ccc(Cl)cc4)cc3C(=O)N([C@H](C)CO)C[C@H]2C)cc1`, in the test with HSkMC, the cytotoxicity call was “inactive”. In the test on HepG2, the cytotoxicity call was “active”. Further, the growth inhibition call in the test on S. aureus RN4220 was “inactive”.
With `C[C@@H]1CN([C@H](C)CO)C(=O)c2cc(NC(=O)Cn3cnnn3)ccc2O[C@@H]1CN(C)S(=O)(=O)c1ccccc1`, the cytotoxicity call in the test with HSkMC and in the test on HepG2 was “inactive” each time. In addition, the growth inhibition call in the test on S. aureus RN4220 was “inactive”.
For `COc1ccc(NC(=O)N(C)C[C@@H]2OCCCC[C@@H](C)Oc3ccc(NS(=O)(=O)c4ccc(OC)cc4)cc3C(=O)N([C@@H](C)CO)C[C@@H]2C)cc1`, the cytotoxicity call with HSkMC and with HepG2 was “inactive” each time. In the test with S. aureus RN4220, the growth inhibition call was “inactive”.
As to `Cc1noc(C)c1NC(=O)N(C)C[C@H]1Oc2c(NC(=O)Nc3cccc4ccccc34)cccc2C(=O)N([C@@H](C)CO)C[C@@H]1C`, the cytotoxicity call in the test with HSkMC and with HepG2 was “inactive” in each case. In addition, in the test on S. aureus RN4220, the growth inhibition call was “inactive”.
`C[C@@H]1CN([C@H](C)CO)C(=O)c2cc(NS(=O)(=O)c3ccccc3)ccc2O[C@H]1CN(C)S(=O)(=O)c1ccc(F)cc1`: the cytotoxicity call with HSkMC and in the test on HepG2 was “inactive” each time. Also, in the test on S. aureus RN4220, the growth inhibition call was “inactive”.
Turning to `CC(C)(CO)c1cc2cc(NC(=O)C3(c4ccc5c(c4)OC(F)(F)O5)CC3)c(F)cc2n1C[C@@H](O)CO`, the cytotoxicity call with HSkMC and in the test on HepG2 was “inactive” throughout. Also, in the test with S. aureus RN4220, the growth inhibition call is “inactive”.
With `COc1cc(C)nc2nc(S(C)(=O)=O)nn12`, the cytotoxicity call with HSkMC and with HepG2 was “inactive” throughout. Also, the growth inhibition call in the test on S. aureus RN4220 was “inactive”.
Regarding `CN1CCN(CC#N)C(=O)C12CCN(S(=O)(=O)C1CC1)CC2`, the cytotoxicity call with HSkMC and in the test with HepG2 was “inactive” throughout. The growth inhibition call in the test with S. aureus RN4220 was “inactive”.
With `COc1ccc(S(=O)(=O)Nc2ccc3c(c2)C(=O)N([C@H](C)CO)C[C@@H](C)[C@@H](CN(C)C(=O)CCC(F)(F)F)OCCCC[C@H](C)O3)cc1`, the cytotoxicity call in the test on HSkMC and in the test on HepG2 was “inactive” throughout. Besides, the growth inhibition call in the test on S. aureus RN4220 was “inactive”.
Consider `C[C@H](CO)N1C[C@H](C)[C@@H](CN(C)C(=O)Nc2cccc3ccccc23)OCCCC[C@H](C)Oc2ccc(NC(=O)CCC(F)(F)F)cc2C1=O`, for which, in the test with HSkMC, the cytotoxicity call is “inactive”. Besides, the cytotoxicity call in the test on HepG2 was “active”. The growth inhibition call in the test on S. aureus RN4220 was “inactive”.
With `O=C(Nc1ccc(C(F)(F)F)cc1)Nc1ccc2c(c1)[C@H]1C[C@H](CC(=O)N3CCc4ccccc4C3)O[C@@H](CO)[C@H]1O2`, the cytotoxicity call in the test on HSkMC and in the test on HepG2 was “inactive” each time. The growth inhibition call with S. aureus RN4220 was “inactive”.
With `COc1ccc(S(=O)(=O)Nc2ccc3c(c2)C(=O)N([C@H](C)CO)C[C@@H](C)[C@@H](CN(C)Cc2ccc(C(F)(F)F)cc2)OCCCC[C@H](C)O3)cc1`, the cytotoxicity call with HSkMC and in the test on HepG2 was “inactive” each time. Moreover, the growth inhibition call in the test with S. aureus RN4220 is “inactive”.
`O=C(C[C@@H]1C=C[C@@H](NC(=O)c2ccncc2)[C@@H](CO)O1)NCc1ccncn1`: the cytotoxicity call with HSkMC and with HepG2 was “inactive” in each case. Also, the growth inhibition call in the test on S. aureus RN4220 is “inactive”.
Consider `Cc1noc(C)c1NC(=O)Nc1ccc2c(c1)C(=O)N([C@H](C)CO)C[C@@H](C)[C@@H](CN(C)C(=O)NC1CCCCC1)OCCCC[C@H](C)O2`, for which the cytotoxicity call with HSkMC and with HepG2 was “inactive” each time. Also, the growth inhibition call in the test on S. aureus RN4220 is “inactive”.
Take `CC(C)NC(=O)N(C)C[C@H]1OCCCC[C@H](C)Oc2ccc(NS(C)(=O)=O)cc2C(=O)N([C@@H](C)CO)C[C@@H]1C`: the cytotoxicity call in the test on HSkMC and with HepG2 was “inactive” in each case. Besides, the growth inhibition call with S. aureus RN4220 is “inactive”.
As for `O=C(Cn1cnnn1)NC1C(=O)N2C(C(=O)O)=C(CSc3nncs3)CSC12` (configuration not stated), the cytotoxicity call in the test on HSkMC and in the test on HepG2 was “inactive” throughout. Besides, the growth inhibition call in the test with S. aureus RN4220 is “active”.
`O=C(C[C@H]1CC[C@H](NC(=O)C2CC2)[C@H](CO)O1)NCCCN1CCOCC1`: the cytotoxicity call in the test with HSkMC and with HepG2 was “inactive” each time. Also, the growth inhibition call in the test on S. aureus RN4220 was “inactive”.
Regarding `O=S(=O)(NCC[C@H]1CC[C@@H](NS(=O)(=O)c2ccccc2Cl)[C@@H](CO)O1)c1ccc(F)cc1`, the cytotoxicity call in the test on HSkMC and in the test with HepG2 was “inactive” each time. The growth inhibition call in the test with S. aureus RN4220 was “inactive”.
In the case of `C[C@@H]1CN([C@H](C)CO)C(=O)c2cc(-c3ccc(C(=O)N(C)C)cc3)cnc2O[C@@H]1CN(C)C(=O)c1cccnc1`, the cytotoxicity call in the test on HSkMC (human skeletal muscle cells) and in the test with HepG2 was “inactive” in each case. In addition, the growth inhibition call in the test with S. aureus RN4220 is “inactive”.
For the molecule `C[C@@H]1CN([C@@H](C)CO)C(=O)c2cc(NC(=O)Nc3ccccc3)ccc2O[C@@H](C)CCCCO[C@H]1CN(C)C(=O)CCC(F)(F)F`, the cytotoxicity call in the test with HSkMC and in the test with HepG2 was “inactive” in each case. The growth inhibition call in the test with S. aureus RN4220 was “inactive”.
With `C[C@H]1CCCCO[C@H](CN(C)Cc2ccncc2)[C@@H](C)CN([C@@H](C)CO)C(=O)c2cc(NC(=O)CCC(F)(F)F)ccc2O1`, the cytotoxicity call in the test with HSkMC and in the test on HepG2 was “inactive” throughout. Also, the growth inhibition call with S. aureus RN4220 was “inactive”.

The values are drawn from the antibiotic and cytotoxicity screens of Wong et al. (2023).
